The other results are listed elsewhere or left out. These are noisy estimates, calculated here from bound and input reads.
target: T1, Pho4 (S. cerevisiae) (UniProt P07270); experiment: relative binding free energy (BET-seq); higher = weaker binding; details: reference: library average
T1 sequence: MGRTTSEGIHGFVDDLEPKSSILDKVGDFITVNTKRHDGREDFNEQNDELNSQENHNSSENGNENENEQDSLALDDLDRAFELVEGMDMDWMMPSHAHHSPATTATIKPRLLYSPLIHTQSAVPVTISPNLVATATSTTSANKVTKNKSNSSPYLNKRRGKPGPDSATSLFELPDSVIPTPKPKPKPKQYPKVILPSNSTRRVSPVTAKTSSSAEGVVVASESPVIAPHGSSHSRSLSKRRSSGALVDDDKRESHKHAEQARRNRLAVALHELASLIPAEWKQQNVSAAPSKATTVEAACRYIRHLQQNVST

Row | Sequence | relative binding free energy
1 | TGCCGCACGTGTGTGT | -0.1 kcal/mol
2 | GGATTCACGTGGTCGT | 0.18 kcal/mol
3 | TTAAACACGTGTAGGG | 0.02 kcal/mol
4 | AGCTTCACGTGGCGGG | 0.26 kcal/mol
5 | ATGGCCACGTGTGCTT | 0.06 kcal/mol
6 | GTAGTCACGTGTTAGG | 0.19 kcal/mol
7 | ATCAGCACGTGGGTTA | -0.18 kcal/mol
8 | TGTGGCACGTGAAGCA | 0.15 kcal/mol
9 | CGGGGCACGTGGGAAA | -0.1 kcal/mol
10 | TACGGCACGTGGACGT | 0.02 kcal/mol
11 | CAGTTCACGTGTGGTG | 0.28 kcal/mol
12 | AGTCTCACGTGCAGGG | 0.28 kcal/mol
13 | TTTATCACGTGATTTA | 0.31 kcal/mol
14 | ATTGACACGTGCAAGG | -0.03 kcal/mol
15 | AATTGCACGTGGCATG | -0.11 kcal/mol
16 | GGCGTCACGTGCCGGG | -0.01 kcal/mol
17 | TAAGACACGTGTGCTG | 0.06 kcal/mol
18 | GGCGTCACGTGCGGGC | 0.17 kcal/mol
19 | AATGACACGTGGTGCT | -0.15 kcal/mol
20 | GGTAACACGTGATAGT | 0.26 kcal/mol
21 | TGGGGCACGTGATTTT | 0.01 kcal/mol

Row | Sequence | relative binding free energy
22 | AGGCTCACGTGTAGGG | 0.06 kcal/mol
23 | TATAGCACGTGTTTTT | -0.19 kcal/mol
24 | TGGGTCACGTGGTGTC | 0.08 kcal/mol
25 | GTTGTCACGTGAGGTC | 0.43 kcal/mol
26 | GTAATCACGTGCCGGG | 0.17 kcal/mol
27 | CATTACACGTGTGTGA | 0.15 kcal/mol
28 | TTATGCACGTGCAATT | 0.02 kcal/mol
29 | ACGGTCACGTGGACTG | 0.28 kcal/mol
30 | AGTTACACGTGGTTGC | 0.08 kcal/mol
31 | TCATGCACGTGTTAGT | -0.18 kcal/mol
32 | TGCAGCACGTGTAATG | 0.01 kcal/mol
33 | GCTGTCACGTGGGATA | 0.13 kcal/mol
34 | AAATCCACGTGAGTGT | 0.39 kcal/mol
35 | TTTTGCACGTGGTACT | -0.08 kcal/mol
36 | CTCGTCACGTGGTGAG | 0.03 kcal/mol
37 | AAATACACGTGAAGGG | 0.26 kcal/mol
38 | TCTTTCACGTGGAGAT | 0.17 kcal/mol
39 | TAAGGCACGTGGAGTC | -0.08 kcal/mol
40 | GGGCGCACGTGCTGGA | -0.1 kcal/mol
41 | CAGTGCACGTGTGAAT | 0.13 kcal/mol
42 | AATGTCACGTGGTGGG | 0.02 kcal/mol

Row | Sequence | relative binding free energy
43 | TTTTGCACGTGTGGTG | 0.08 kcal/mol
44 | ATTGGCACGTGGATCG | -0.15 kcal/mol
45 | ATGAACACGTGATTAG | 0.18 kcal/mol
46 | TTGTACACGTGTTGAG | 0.13 kcal/mol
47 | ATTATCACGTGGGATG | 0.03 kcal/mol
48 | TGGATCACGTGTTGGG | 0.18 kcal/mol
49 | TGTTGCACGTGGGCGC | -0.06 kcal/mol
50 | GTTTACACGTGGGCGA | 0.05 kcal/mol
51 | CTTTGCACGTGGTATA | -0.08 kcal/mol
52 | AATATCACGTGGTTGG | 0.03 kcal/mol
53 | ATATACACGTGTGGGA | 0.07 kcal/mol
54 | ATTTACACGTGGGAGC | 0.02 kcal/mol
55 | GGGTGCACGTGCTGTC | -0.06 kcal/mol
56 | TGAATCACGTGTACGT | 0.14 kcal/mol
57 | GATTTCACGTGGTTAA | 0.22 kcal/mol
58 | TTTCGCACGTGGAGGG | -0.11 kcal/mol
59 | TAGGGCACGTGCCGGT | -0.21 kcal/mol
60 | AGATTCACGTGCTAGG | 0.16 kcal/mol
61 | ATTTACACGTGCGGTA | 0 kcal/mol
62 | GGTGTCACGTGAGACG | 0.1 kcal/mol
63 | ATTGTCACGTGCGAGA | 0.09 kcal/mol
